Target: C-terminal mesothelin peptide consisting of 50 amino acids (residues 539-588 of SEQ ID NO: 9) (human)
Assay: ELISA on coated C-terminal mesothelin peptide, equilibrium constant by Prism / Scatchard

Sequence of C-terminal mesothelin peptide consisting of 50 amino acids (residues 539-588 of SEQ ID NO: 9) (human) (peptide, as listed by the source): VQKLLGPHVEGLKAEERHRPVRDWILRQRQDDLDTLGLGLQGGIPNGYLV

Kd: 0.0161 µM
B1: SD1-human Fc fusion protein, P01857 partial chain (Fc fusion)
chain: QVQLVQSGGGLVQPGGSLRLSCAASDFDFAAYEMSWVRQAPGQGLEWVAIISHDGIDKYYTDSVKGRFTISRDNSKNTLYLQMNTLRAEDTATYYCLRLGAVGQGTLVTVSSS[human IgG1 Fc not shown]

Reference: patent US20150274836A1
